# Measured values as given in the supplement of paper PMC8728848.
# The list shows a part of the results.
# What was measured:
# Assay in all cases: glycan array binding signal (z-score within array); higher = stronger binding
# Conditions in all cases: glycan notation: IUPAC condensed, linker removed
# Gal3S(b1-4)Glc = target: Gal3S(b1-4)Glc
# Procedure, shortened: (§1)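 Arrays were curated from the Consortium for Functional Glycomics database, 3228 in total, and kept only where the protein sequence was available. Binding is expressed as a within-array Z-score. This score was averaged across arrays of the same protein sequence at different concentrations or buffers and across linkers, and negative values can be read as non-binding.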
# Gal3S(b1-4)Glc6S = target: Gal3S(b1-4)Glc6S
# Procedure, shortened: as §1
# Gal3S(b1-4)GlcNAc = target: Gal3S(b1-4)GlcNAc
# Procedure, shortened: as §1
# [1] = target: Gal3S(b1-4)[Fuc(a1-3)]Glc6S
# Procedure, shortened: as §1
# [2] = target: Gal3S(b1-4)[Fuc(a1-3)]GlcNAc
# Procedure, shortened: as §1
# [3] = target: Gal3S(b1-4)[Fuc(a1-3)]GlcNAc6S
# Procedure, shortened: as §1
# Gal3S4S(b1-4)GlcNAc = target: Gal3S4S(b1-4)GlcNAc
# Procedure, shortened: as §1
# Gal3S6S(b1-4)GlcNAc = target: Gal3S6S(b1-4)GlcNAc
# Procedure, shortened: as §1
# Gal3S6S(b1-4)GlcNAc6S = target: Gal3S6S(b1-4)GlcNAc6S
# Procedure, shortened: as §1
# Gal4S(b1-4)GlcNAc = target: Gal4S(b1-4)GlcNAc
# Procedure, shortened: as §1
# Gal4S6S(b1-4)GlcNAc = target: Gal4S6S(b1-4)GlcNAc
# Procedure, shortened: as §1
# Gal6P(b1-4)GlcNAc = target: Gal6P(b1-4)GlcNAc
# Procedure, shortened: as §1
# Gal6S(b1-3)GlcNAc = target: Gal6S(b1-3)GlcNAc
# Procedure, shortened: as §1
# Gal6S(b1-3)GlcNAc6S = target: Gal6S(b1-3)GlcNAc6S
# Procedure, shortened: as §1
# Gal6S(b1-4)Glc = target: Gal6S(b1-4)Glc
# Procedure, shortened: as §1
# Gal6S(b1-4)Glc6S = target: Gal6S(b1-4)Glc6S
# Procedure, shortened: as §1
# Gal6S(b1-4)GlcNAc = target: Gal6S(b1-4)GlcNAc
# Procedure, shortened: as §1
# Gal6S(b1-4)GlcNAc6S = target: Gal6S(b1-4)GlcNAc6S
# Procedure, shortened: as §1
# GalNAc(a1-3)Gal = target: GalNAc(a1-3)Gal
# Procedure, shortened: as §1
# GalNAc(a1-3)GalNAc = target: GalNAc(a1-3)GalNAc
# Procedure, shortened: as §1
# [4] = target: GalNAc(a1-3)GalNAc(b1-3)Gal(a1-4)Gal(b1-4)Glc
# Procedure, shortened: as §1
# [5] = target: GalNAc(a1-3)GalNAc(b1-3)Gal(a1-4)Gal(b1-4)GlcNAc
# Procedure, shortened: as §1
# GalNAc(b1-3)Gal = target: GalNAc(b1-3)Gal
# Procedure, shortened: as §1
# [6] = target: GalNAc(b1-3)Gal(a1-4)Gal(b1-4)GlcNAc
# Procedure, shortened: as §1
# [7] = target: GalNAc(b1-3)Gal(a1-4)Gal(b1-4)GlcNAc(b1-3)Gal(b1-4)Glc
# Procedure, shortened: as §1
# [8] = target: GalNAc(b1-3)Gal(a1-6)Gal(b1-4)Glc
# Procedure, shortened: as §1
# GalNAc(b1-3)GalNAc = target: GalNAc(b1-3)GalNAc
# Procedure, shortened: as §1
# GalNAc(b1-3)GlcNAc = target: GalNAc(b1-3)GlcNAc
# Procedure, shortened: as §1
# GalNAc(b1-4)Gal(b1-4)Glc = target: GalNAc(b1-4)Gal(b1-4)Glc
# Procedure, shortened: as §1
# GalNAc(b1-4)GlcNAc = target: GalNAc(b1-4)GlcNAc
# Procedure, shortened: as §1
# [9] = target: GalNAc(b1-4)GlcNAc(b1-2)Man
# Procedure, shortened: as §1
# [10] = target: GalNAc(b1-4)GlcNAc(b1-2)Man(a1-3)[GalNAc(b1-4)GlcNAc(b1-2)Man(a1-6)]Man(b1-4)GlcNAc(b1-4)GlcNAc
# Procedure, shortened: as §1
# [11] = target: GalNAc(b1-4)GlcNAc(b1-3)GalNAc(b1-4)GlcNAc
# Procedure, shortened: as §1
# GalNAc(b1-4)GlcNAc6S = target: GalNAc(b1-4)GlcNAc6S
# Procedure, shortened: as §1
# GalNAc(b1-6)GalNAc = target: GalNAc(b1-6)GalNAc
# Procedure, shortened: as §1
# GalNAc3S(b1-4)GlcNAc = target: GalNAc3S(b1-4)GlcNAc
# Procedure, shortened: as §1
# GalNAc3S(b1-4)GlcNAc3S = target: GalNAc3S(b1-4)GlcNAc3S
# Procedure, shortened: as §1
# [12] = target: GalNAc3S(b1-4)[Fuc(a1-3)]GlcNAc
# Procedure, shortened: as §1
# GalNAc4S6S(b1-4)GlcNAc = target: GalNAc4S6S(b1-4)GlcNAc
# Procedure, shortened: as §1
# GalNAc6S(b1-4)GlcNAc = target: GalNAc6S(b1-4)GlcNAc
# Procedure, shortened: as §1
# Glc(a1-4)Glc = target: Glc(a1-4)Glc
# Procedure, shortened: as §1
# [13] = target: Glc(a1-4)Glc(a1-4)Glc(a1-4)Glc
# Procedure, shortened: as §1
# Glc(a1-6)Glc(a1-6)Glc = target: Glc(a1-6)Glc(a1-6)Glc
# Procedure, shortened: as §1
# [14] = target: Glc(a1-6)Glc(a1-6)Glc(a1-6)Glc
# Procedure, shortened: as §1
# Glc(b1-4)Glc = target: Glc(b1-4)Glc
# Procedure, shortened: as §1
binder,measurement,setting,value
PfulAvr4 (Pseudocercospora fuligena) (protein) HHHHHHDYKDDDDKTYVQDKTPAFVCPAADIKTTKCLGPKDCLYPSPKTCNGYIQCSPADDSYLTGIIHEMPCPSGLLWNDNKKWCDWPENTTCGLVKSAGATEVDATKQGPTPGKYHG,glycan array binding signal (z-score),Gal3S(b1-4)Glc,-0.152
same,glycan array binding signal (z-score),Gal3S(b1-4)Glc6S,-0.114
same,glycan array binding signal (z-score),Gal3S(b1-4)GlcNAc,-0.093
same,glycan array binding signal (z-score),[1],-0.113
same,glycan array binding signal (z-score),[2],-0.11
same,glycan array binding signal (z-score),[3],-0.055
same,glycan array binding signal (z-score),Gal3S4S(b1-4)GlcNAc,-0.138
same,glycan array binding signal (z-score),Gal3S6S(b1-4)GlcNAc,0.034
same,glycan array binding signal (z-score),Gal3S6S(b1-4)GlcNAc6S,-0.111
same,glycan array binding signal (z-score),Gal4S(b1-4)GlcNAc,-0.068
same,glycan array binding signal (z-score),Gal4S6S(b1-4)GlcNAc,-0.087
same,glycan array binding signal (z-score),Gal6P(b1-4)GlcNAc,-0.126
same,glycan array binding signal (z-score),Gal6S(b1-3)GlcNAc,-0.137
same,glycan array binding signal (z-score),Gal6S(b1-3)GlcNAc6S,-0.117
same,glycan array binding signal (z-score),Gal6S(b1-4)Glc,-0.077
same,glycan array binding signal (z-score),Gal6S(b1-4)Glc6S,0.01
same,glycan array binding signal (z-score),Gal6S(b1-4)GlcNAc,-0.128
same,glycan array binding signal (z-score),Gal6S(b1-4)GlcNAc6S,-0.144
same,glycan array binding signal (z-score),GalNAc(a1-3)Gal,-0.066
same,glycan array binding signal (z-score),GalNAc(a1-3)GalNAc,-0.075
same,glycan array binding signal (z-score),[4],-0.154
same,glycan array binding signal (z-score),[5],-0.078
same,glycan array binding signal (z-score),GalNAc(b1-3)Gal,-0.145
same,glycan array binding signal (z-score),[6],-0.132
same,glycan array binding signal (z-score),[7],0.013
same,glycan array binding signal (z-score),[8],-0.171
same,glycan array binding signal (z-score),GalNAc(b1-3)GalNAc,-0.101
same,glycan array binding signal (z-score),GalNAc(b1-3)GlcNAc,-0.163
same,glycan array binding signal (z-score),GalNAc(b1-4)Gal(b1-4)Glc,0.004
same,glycan array binding signal (z-score),GalNAc(b1-4)GlcNAc,-0.093
same,glycan array binding signal (z-score),[9],-0.111
same,glycan array binding signal (z-score),[10],-0.08
same,glycan array binding signal (z-score),[11],-0.127
same,glycan array binding signal (z-score),GalNAc(b1-4)GlcNAc6S,-0.154
same,glycan array binding signal (z-score),GalNAc(b1-6)GalNAc,-0.13
same,glycan array binding signal (z-score),GalNAc3S(b1-4)GlcNAc,-0.109
same,glycan array binding signal (z-score),GalNAc3S(b1-4)GlcNAc3S,-0.087
same,glycan array binding signal (z-score),[12],-0.134
same,glycan array binding signal (z-score),GalNAc4S6S(b1-4)GlcNAc,-0.127
same,glycan array binding signal (z-score),GalNAc6S(b1-4)GlcNAc,-0.125
same,glycan array binding signal (z-score),Glc(a1-4)Glc,-0.031
same,glycan array binding signal (z-score),[13],-0.017
same,glycan array binding signal (z-score),Glc(a1-6)Glc(a1-6)Glc,-0.134
same,glycan array binding signal (z-score),[14],-0.021
same,glycan array binding signal (z-score),Glc(b1-4)Glc,-0.043
